Laboratory results reported in publication PMC4336329 (PLoS ONE, 2015).
Among all 310,000 compounds or so, about 14,000 (4.5%) showed an effect of 50% or more. The effect is printed as a negative number. Some of the results follow.

molecular target: human ether-à-go-go-related gene (hERG) potassium channel (human, UniProt Q12809); assay: primary screen, population patch clamp on CHO cells stably expressing hERG
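Further: peak tail current of the secondary pulse compared with the same well before compound.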

Chain of human ether-à-go-go-related gene (hERG) potassium channel (Q12809 whole entry, looked up): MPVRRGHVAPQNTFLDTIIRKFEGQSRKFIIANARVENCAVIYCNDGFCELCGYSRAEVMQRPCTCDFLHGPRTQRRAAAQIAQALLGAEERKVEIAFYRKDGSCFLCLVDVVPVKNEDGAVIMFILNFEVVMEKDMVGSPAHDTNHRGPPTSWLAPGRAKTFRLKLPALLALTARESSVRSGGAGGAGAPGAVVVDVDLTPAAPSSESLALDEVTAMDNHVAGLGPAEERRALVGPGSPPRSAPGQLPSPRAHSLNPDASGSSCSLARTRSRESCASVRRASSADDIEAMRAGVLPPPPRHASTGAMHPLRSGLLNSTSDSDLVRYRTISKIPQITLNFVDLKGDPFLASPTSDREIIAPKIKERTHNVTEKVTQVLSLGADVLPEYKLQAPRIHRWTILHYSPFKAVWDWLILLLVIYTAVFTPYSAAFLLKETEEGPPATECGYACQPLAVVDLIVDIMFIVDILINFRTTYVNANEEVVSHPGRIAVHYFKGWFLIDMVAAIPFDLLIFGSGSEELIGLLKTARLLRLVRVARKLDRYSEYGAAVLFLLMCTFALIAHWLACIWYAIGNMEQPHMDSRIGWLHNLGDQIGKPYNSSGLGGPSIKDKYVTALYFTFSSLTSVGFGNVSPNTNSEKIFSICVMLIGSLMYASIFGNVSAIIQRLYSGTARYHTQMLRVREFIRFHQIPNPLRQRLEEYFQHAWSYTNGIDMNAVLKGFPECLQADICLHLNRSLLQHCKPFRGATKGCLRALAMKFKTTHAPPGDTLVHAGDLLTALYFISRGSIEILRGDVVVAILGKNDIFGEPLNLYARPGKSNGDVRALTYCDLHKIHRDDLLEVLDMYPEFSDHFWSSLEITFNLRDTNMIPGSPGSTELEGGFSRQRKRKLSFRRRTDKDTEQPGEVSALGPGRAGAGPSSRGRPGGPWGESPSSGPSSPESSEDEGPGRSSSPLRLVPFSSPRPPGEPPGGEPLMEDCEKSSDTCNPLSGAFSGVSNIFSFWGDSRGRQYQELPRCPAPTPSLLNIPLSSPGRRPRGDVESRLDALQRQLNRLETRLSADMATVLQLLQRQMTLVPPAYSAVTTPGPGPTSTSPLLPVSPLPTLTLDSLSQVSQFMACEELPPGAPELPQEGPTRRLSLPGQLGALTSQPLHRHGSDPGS

SMILES	hERG current change (%, negative = inhibition) at 10uM [%]
CN(C)S(=O)(=O)c1cccc(NC(=S)NCCCn2ccnc2)c1	0.565
Cc1ccc(Cl)cc1NC(=S)N(CCCN1CCOCC1)Cc1ccccn1	-34.3
COc1ccccc1CNC(=O)C(c1ccccc1)c1ccccc1	18.6
CC(NC(=O)/C(C#N)=C/c1ccc(N2CCOCC2)cc1)c1ccccc1 (centres unmarked)	-43.3
COC(=O)CN1C(=O)CC(C)(C)S(=O)c2ccccc21 (centres unmarked)	-1.42
CC(C)OC(=O)c1c(NC(=O)CCn2nnc3ccccc32)sc2c1CCCC2	24
CC1(C(=O)O)CC(C)(C(=O)O)CC(C)(C(=O)O)C1 (centres unmarked)	19.2
Cc1nc2ccccn2c1/C(O)=C1\C(=O)C(=O)N(CCN(C)C)C1c1ccco1 (centres unmarked)	-20.2
CC(Oc1ccccc1)C(=O)N=C1SC2CS(=O)(=O)CC2N1c1ccc(F)cc1 (centres unmarked)	-11.2
COc1ccc(C(=O)NCC(c2cccs2)N2CCOCC2)cc1OC (centres unmarked)	-7.42
CCOC(=O)c1cc(-c2ccc(OC)cc2F)nc2c1c(C)nn2CCC#N	-4.2
Cc1nn(C)c(C)c1CN(C)C(=O)C1CCC(=O)N(C2CCCCCC2)C1 (centres unmarked)	13.8
CCOC(=O)Oc1ccc(C(=O)OCCCN(C)C)cc1OC.Cl	-17.7
COc1ccc(OCC(=O)Nc2ccc3c(c2)nc(CCN2CCCCC2)n3C)cc1	-65.5
O=C(Nc1ccc(O)cc1)N1CCOCC1	10.8
CN(C(=O)COC(=O)C1=COCCO1)c1c(N)n(Cc2ccccc2)c(=O)[nH]c1=O	17.8
CCN(c1ccccc1)S(=O)(=O)c1ccc(OCC(=O)N2CCCC2)cc1	-10.4
CCn1c(SCC(=O)NC2CC2)nnc1-c1ccc(C)cc1	1.36
COc1ccc(NC(=O)CSc2ccc(-c3ccco3)nn2)c(OC)c1	4.1
Cc1cc(C)c(NC(=S)N(C)C)cc1C	1.12
COc1ccc(S(=O)(=O)N(C)c2ccc(C(=O)N3CCN(c4ccccc4)CC3)cc2)cc1OC	-41.2
COc1cccc(Cn2cnc3c(N)c(C)c(C)cc32)c1	-10
OCC1(Cc2ccccc2)CCCN(Cc2ccc(-c3ccco3)cc2)C1 (centres unmarked)	-5.88

SMILES	hERG current change (%, negative = inhibition) at 10uM [%]
CC(C)c1ccc(/C=C/C(=O)Nc2nncs2)cc1	2.84
COc1ccc(NC(=O)CN2C(=O)/C(=C3\SC(=S)N(CCC(=O)O)C3=O)c3ccccc32)cc1	16
Cc1oc2c(c(C)cc3oc(=O)c(CC(=O)N[C@@H](C)C(=O)O)c(C)c32)c1C	21.1
C/C(=N\Nc1ccc(F)cc1F)c1ccc(N2CCOCC2)cc1	12.8
COc1ccc(F)cc1S(=O)(=O)N1CCC2(CC1)OCCN2S(=O)(=O)c1cccs1	-42.6
O=C(CSc1nnnn1-c1ccc(F)cc1)NNC(=O)c1ccco1	-5.99
CC(=O)N1c2ccc(S(=O)(=O)N(C)CC(=O)NCc3ccc(C)cc3)cc2CC1C (centres unmarked)	19
OCC[C@@H]1C[C@H](O)[C@@H](O)[C@]2(CCc3ccccc3CO2)O1	15.9
Cc1ccc(OCC(=O)OCc2nc3scc(-c4ccccc4)c3c(=O)[nH]2)cc1C	4.97
O=C(Nc1ccc(Cl)c(S(=O)(=O)N2CCOCC2)c1)c1ccc(OCC2CCCO2)cc1 (centres unmarked)	-6.57
O=C1CCC(C(=O)OCC(=O)C23CC4CC(CC(C4)C2)C3)N1 (centres unmarked)	-0.714
Oc1ccc(N=C/C=C/c2cccc(Br)c2)cc1-c1nc2ccccc2s1	20.9
CC(=O)NC1C(=O)Nc2c1cccc2C(F)(F)F (centres unmarked)	11.6
O=C(NNC(=O)c1cccc(-n2cnnn2)c1)c1ccccc1	21.2
Cl.Nc1cccc(Nc2ncnc3ccccc23)c1	14.2
Cn1cc(C(=O)N/N=C/c2cccc(O)c2)ccc1=O	14.2
COc1ccc(NC(=O)CCN2C(=O)c3ccccc3C2=O)c(OC)c1	7.18
Cc1cc(C(=O)O)cc(Br)c1N	4.61
Clc1cnc(Nc2cccnc2)c(Cl)c1	-7.58
CCOc1ccc(NC2CCCCC2NS(=O)(=O)c2ccccc2)cc1 (centres unmarked)	-7.37
Cc1ccc2c(C(=O)CN3CCN(C(=O)c4ccco4)CC3)c(C)[nH]c2c1	-11.5
CCN(CC)CCOC(=O)c1ccc(N=Cc2c(O)[nH]c(=O)[nH]c2=O)cc1	-1.88
Cc1ccc(S(=O)(=O)NC2CCCCC2)cc1	10.7

SMILES	hERG current change (%, negative = inhibition) at 10uM [%]
Cc1ccc(CN(C(=O)c2c(F)cccc2F)C2CC(C)(C)NC(C)(C)C2)o1.Cl	-25.1
COc1cccc(/C=N/NC(=O)CSc2ccccc2C)c1O	-16.8
CCCn1c(NC(=O)c2ccc(Br)cc2)nc2ccccc21	-1.86
CN(C)CC1CSCCC1(O)c1ccccc1Cl.Cl (centres unmarked)	2.83
CCN(CC)S(=O)(=O)c1ccc2c(c1)c(=O)c(C(=O)N1CCOCC1)cn2C	4.64
Cc1ccc(S(=O)(=O)/N=C(/NC(=S)Nc2cccc(C)c2)c2ccccc2)cc1	6.31
COc1cc(CC(=O)OCC(=O)Nc2ccc(N3CCOCC3)cc2)cc(OC)c1OC	-2.66
CCCOCCOC(=O)c1[nH]c2c(c1C)C(=O)CC(c1cc(OC)ccc1OC)C2 (centres unmarked)	5.2
CCN(CC)C(=O)Cn1cc(S(=O)(=O)CC(=O)Nc2ccc3c(c2)OCCO3)c2ccccc21	-9.47
CC1CC2=C(C(=O)O1)C(C)Nc1ccccc1N2 (centres unmarked)	0.756
COc1cc(/C=C/C(=O)OCC(=O)N2CCCC2)ccc1OCC#N	-6.14
CCS(=O)(=O)N1CCC(C(=O)NCCCN2CCCC2)CC1	24.9
COCCn1c(SCCCC(=O)c2ccc(Br)cc2)nnc1-c1ccncc1	-60.7
Cc1nc2nc(-c3ccccc3)[nH]n2c(=O)c1C	-3.77
O=C(Nc1cccc(S(=O)(=O)N2CCCC2)c1)C1CCCN1C(=O)c1cccs1 (centres unmarked)	-7.77
CC(=O)c1c(O)cc(C)n(Cc2ccccc2)c1=O	-5.14
O=C(CSc1ncnc2c1nnn2-c1ccc(F)cc1)NCc1ccco1	-3.27
O=C1NCN(CCO)CN1	8.23
Oc1ccc(/C=N/N2CCN(c3ccccn3)CC2)cc1	5.86
COC(=O)C1=C(c2ccc(C(C)=O)cc2)C[C@@H]2CC[C@H]1N2C(=O)NCCO	-2.53
CC(=NCc1ccco1)c1c(O)n(-c2ccccc2C)c(=O)[nH]c1=O	20.9
COc1cc(S(=O)(=O)Nc2ccccc2C)ccc1NC(=O)c1ccncc1	-2.55
CCOCCCNC(=O)c1ccc2c(c1)ncn2-c1cccc(C)c1	-33.2

SMILES	hERG current change (%, negative = inhibition) at 10uM [%]
Nc1ccccc1C(=O)Nc1cccc(C(=O)O)c1	8.6
Cc1cc(/C=C2/C(=O)NC(=O)N(c3ccc(Br)cc3)C2=O)c(C)n1C	9.31
Cn1c(SCC(=O)NCC2CCCO2)nnc1-c1cccc(NC(=O)c2ccccc2F)c1 (centres unmarked)	4.14
CC(C)(C)c1[nH]nc2c1C(c1cccnc1)C(C#N)=C(N)O2 (centres unmarked)	3.46
Cc1ccc(C(=O)NNC(=O)c2ccc(NS(=O)(=O)c3cccs3)cc2)o1	-16.5
CC1CN(Cc2ccccc2)C(C)CC1O (centres unmarked)	-29.1
COC(=O)CN1C(C)=Nc2ccc(C)cc2C1c1ccccc1 (centres unmarked)	-43.1
Cc1cc(NC(=O)CSc2c(C)[nH]c3ccccc23)no1	7.46
CCCc1ncc(C(O)c2cccc(OC)c2OC)n1C (centres unmarked)	12.7
O=C1/C(=C/c2cccs2)SC(=S)N1c1ccccc1	10.5
CC(=O)c1cccc(NC(=O)c2ccccc2N(C)S(=O)(=O)c2ccc(C)cc2)c1	-46.7
CCN(CC)S(=O)(=O)c1ccc(Cl)c(NC(=O)CSc2nnc(-c3cccs3)o2)c1	-23.1
O=C(CCn1c(=S)oc2ccccc21)Nc1ccc2c(c1)OCCO2	0.605
CC(C)c1ccc2[nH]c(O)c(N=NC(=O)c3cccc(S(=O)(=O)Nc4ccccc4Cl)c3)c2c1	6.86
O=C(c1nc2ccc(Cl)cn2c1CN1CCC[C@H]1CO)N1CCCCCCC1	-1.18
CC(=O)N(Cc1ccccc1)c1ncc2c(n1)c(=O)c(C#N)c1ccccn12	10.4
CCNC(=S)N/N=C/c1c(Cl)cccc1Cl	18.1
CCn1cc([N+](=O)[O-])c(C(=O)Nc2nc(-c3ccc(C)cc3)c(C)s2)n1	-9.72
CCN(CC(=O)Nc1ccc(NC(C)=O)cc1)C(=O)/C=C/c1cn(-c2ccccc2)nc1-c1ccc(C)cc1	10.9
COc1ccc(C/C(C)=N/NC(=S)Nc2ccc(Cl)cc2)cc1	24.5
